US20240376185A1 (SMIVET B V, published 2024)

T1: chicken ovalbumin (chicken, UniProt P01012 2-386)
T1 construct: also called Chicken Alb
T1 sequence (looked up): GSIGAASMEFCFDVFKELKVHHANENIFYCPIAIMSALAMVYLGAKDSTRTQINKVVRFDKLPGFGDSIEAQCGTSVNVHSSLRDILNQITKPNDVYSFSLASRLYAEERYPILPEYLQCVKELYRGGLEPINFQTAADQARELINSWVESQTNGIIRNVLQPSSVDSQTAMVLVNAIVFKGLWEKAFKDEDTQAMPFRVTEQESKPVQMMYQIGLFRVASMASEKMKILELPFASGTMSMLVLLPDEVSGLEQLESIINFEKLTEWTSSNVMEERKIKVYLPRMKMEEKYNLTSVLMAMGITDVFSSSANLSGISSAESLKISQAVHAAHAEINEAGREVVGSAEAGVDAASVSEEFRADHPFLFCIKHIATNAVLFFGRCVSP

B1: SVA16L (VHH, not shown: small tags and cut ends)
VHH: QVQLQESGGGVVQAGGSLRLSCAASGRTVSSSAMGWFRLAPGKEREFVVGISRSGGSIFYADSVKGRFTISRKNAKNTVDLQMNSLKPEDTAVYYCAAGYRPGYGDYGRVFYREDEYDDWGQGTQVTVSS
B2: SVA16L (VHH, not shown: small tags and cut ends)
VHH: B1 VHH
B3: SVA04L (VHH, not shown: small tags and cut ends)
VHH: QVQLQQSGGGLVQAGGSLRLACAASGRTLSSYVMGWFRQAPGKEREFVAAISWSGGSTYYADSVKGRFTISRDNAKNTVYLQMNSLKPEDTAVYYCAATLRGSNRYYSGRVYDYWGQGTQVTVSS
B4: SVA02L (VHH, not shown: small tags and cut ends)
VHH: QVQLQQSGGGLVQAGGSLRLSCAASGRFFSRQVMGWFRQAPGKDREFVGVISWDNGVTFYSDSVKGRFTMSREIAKKTVHLQMNSLKPEDTAVYYCAAGNALHSRYYSPSKYDYWGPGTQVTVSS

Columns and labels:
Cat albumin [1] = biological target: T2, Cat albumin (cat, UniProt P49064 25-608); experiment: BLI (Octet Red96), SDA on Ni-NTA sensor, albumin as analyte
Sequence of Cat albumin (P49064 25-608 limits assumed): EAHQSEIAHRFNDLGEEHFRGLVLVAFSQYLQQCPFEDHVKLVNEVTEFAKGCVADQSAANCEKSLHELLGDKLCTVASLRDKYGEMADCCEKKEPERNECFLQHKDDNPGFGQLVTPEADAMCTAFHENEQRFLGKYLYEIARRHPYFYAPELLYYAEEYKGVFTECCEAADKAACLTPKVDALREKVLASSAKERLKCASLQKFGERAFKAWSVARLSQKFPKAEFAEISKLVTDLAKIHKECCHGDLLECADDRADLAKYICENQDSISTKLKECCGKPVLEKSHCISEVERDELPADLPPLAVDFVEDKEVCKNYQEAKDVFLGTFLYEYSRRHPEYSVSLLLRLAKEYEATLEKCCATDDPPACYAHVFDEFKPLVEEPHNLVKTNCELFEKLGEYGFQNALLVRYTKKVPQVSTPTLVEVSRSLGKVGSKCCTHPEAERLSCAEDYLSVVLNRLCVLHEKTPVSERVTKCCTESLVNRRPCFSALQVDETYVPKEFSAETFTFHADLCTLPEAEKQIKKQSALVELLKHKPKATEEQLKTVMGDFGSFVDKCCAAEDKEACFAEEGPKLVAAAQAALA
T2 construct: also called Feline albumin; Feline Alb

Dog albumin [2] = biological target: T3, Dog albumin (dog, UniProt P49822 25-608); experiment: as above
Sequence of Dog albumin (P49822 25-608 limits assumed): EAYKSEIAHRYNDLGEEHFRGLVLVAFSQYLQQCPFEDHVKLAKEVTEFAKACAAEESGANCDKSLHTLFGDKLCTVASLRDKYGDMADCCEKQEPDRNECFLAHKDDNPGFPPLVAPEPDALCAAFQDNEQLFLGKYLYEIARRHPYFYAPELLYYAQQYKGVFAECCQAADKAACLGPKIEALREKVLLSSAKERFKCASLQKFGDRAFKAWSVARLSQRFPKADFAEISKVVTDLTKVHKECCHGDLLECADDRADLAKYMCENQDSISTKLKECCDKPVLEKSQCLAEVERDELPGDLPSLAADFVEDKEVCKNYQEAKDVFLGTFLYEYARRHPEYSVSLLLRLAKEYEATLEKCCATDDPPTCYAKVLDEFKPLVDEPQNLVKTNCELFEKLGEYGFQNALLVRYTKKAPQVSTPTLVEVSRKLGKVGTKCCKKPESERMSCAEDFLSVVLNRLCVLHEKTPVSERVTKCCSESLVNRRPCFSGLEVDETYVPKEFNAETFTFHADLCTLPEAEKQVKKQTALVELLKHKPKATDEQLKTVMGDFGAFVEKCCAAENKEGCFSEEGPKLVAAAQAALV
T3 construct: also called Canine albumin; Canine Alb

chicken ovalbumin [3] = biological target: T1, chicken ovalbumin; experiment: ELISA; A450 below 0.2 at highest SDA concentration
swine albumin [4] = biological target: T4, swine albumin (swine, UniProt P08835 25-607); experiment: ELISA; A450 below 0.2 at highest SDA concentration
T4 construct: also called Porcine albumin

bovine albumin [5] = biological target: T5, bovine albumin (bovine, UniProt P02769 25-607); experiment: ELISA; A450 below 0.2 at highest SDA concentration
human albumin [6] = biological target: T6, human albumin (human, UniProt P02768 25-609); experiment: ELISA; A450 below 0.2 at highest SDA concentration
mouse albumin [7] = biological target: T7, mouse albumin (mouse, UniProt P07724 25-608); experiment: ELISA; A450 below 0.2 at highest SDA concentration
sheep albumin [8] = biological target: T8, sheep albumin (sheep, UniProt P14639 25-607); experiment: ELISA; A450 below 0.2 at highest SDA concentration
dog albumin [9] = biological target: T9, dog albumin (dog, UniProt P49822 25-608); experiment: ELISA on coated albumin
Sequence of dog albumin (P49822 25-608 limits assumed): as above
T9 construct: also called Canine albumin

chicken ovalbumin [10] = biological target: T1, chicken ovalbumin; experiment: ELISA on coated albumin
swine albumin [11] = biological target: T4, swine albumin; experiment: ELISA on coated albumin
T4 sequence (P08835 25-607 limits assumed): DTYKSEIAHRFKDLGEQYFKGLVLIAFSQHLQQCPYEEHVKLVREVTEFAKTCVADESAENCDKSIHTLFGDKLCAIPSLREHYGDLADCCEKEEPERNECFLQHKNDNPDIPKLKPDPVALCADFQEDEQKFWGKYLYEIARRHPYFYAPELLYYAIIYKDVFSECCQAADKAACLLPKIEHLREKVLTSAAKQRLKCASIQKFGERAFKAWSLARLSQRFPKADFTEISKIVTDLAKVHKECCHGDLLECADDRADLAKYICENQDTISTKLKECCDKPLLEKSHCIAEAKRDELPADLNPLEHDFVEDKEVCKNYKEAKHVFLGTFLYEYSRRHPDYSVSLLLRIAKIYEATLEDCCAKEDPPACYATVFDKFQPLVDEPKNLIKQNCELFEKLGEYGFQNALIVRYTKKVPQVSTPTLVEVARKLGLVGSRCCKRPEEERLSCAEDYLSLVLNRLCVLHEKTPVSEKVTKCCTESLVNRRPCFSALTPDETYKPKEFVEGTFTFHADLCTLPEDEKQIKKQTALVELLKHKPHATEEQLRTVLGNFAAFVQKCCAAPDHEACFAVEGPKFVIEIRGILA

bovine albumin [12] = biological target: T5, bovine albumin; experiment: ELISA on coated albumin
T5 sequence (P02769 25-607 limits assumed): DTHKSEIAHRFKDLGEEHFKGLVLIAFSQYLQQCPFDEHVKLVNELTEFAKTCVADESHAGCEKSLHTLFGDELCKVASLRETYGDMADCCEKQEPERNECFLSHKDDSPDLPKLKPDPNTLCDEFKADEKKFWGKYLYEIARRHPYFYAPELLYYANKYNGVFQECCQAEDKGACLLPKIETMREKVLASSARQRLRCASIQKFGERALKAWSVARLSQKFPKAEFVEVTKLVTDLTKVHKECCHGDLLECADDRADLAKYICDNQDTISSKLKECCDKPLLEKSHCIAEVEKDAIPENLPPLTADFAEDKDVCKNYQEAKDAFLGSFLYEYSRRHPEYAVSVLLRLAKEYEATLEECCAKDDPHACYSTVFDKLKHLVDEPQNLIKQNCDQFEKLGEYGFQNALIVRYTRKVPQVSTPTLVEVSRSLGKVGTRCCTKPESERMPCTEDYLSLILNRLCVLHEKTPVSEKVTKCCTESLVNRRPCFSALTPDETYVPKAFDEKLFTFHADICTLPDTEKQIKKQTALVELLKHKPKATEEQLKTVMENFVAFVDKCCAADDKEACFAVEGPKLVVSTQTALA

human albumin [13] = biological target: T6, human albumin; experiment: ELISA on coated albumin
mouse albumin [14] = biological target: T7, mouse albumin; experiment: ELISA on coated albumin
T7 sequence (P07724 25-608 limits assumed): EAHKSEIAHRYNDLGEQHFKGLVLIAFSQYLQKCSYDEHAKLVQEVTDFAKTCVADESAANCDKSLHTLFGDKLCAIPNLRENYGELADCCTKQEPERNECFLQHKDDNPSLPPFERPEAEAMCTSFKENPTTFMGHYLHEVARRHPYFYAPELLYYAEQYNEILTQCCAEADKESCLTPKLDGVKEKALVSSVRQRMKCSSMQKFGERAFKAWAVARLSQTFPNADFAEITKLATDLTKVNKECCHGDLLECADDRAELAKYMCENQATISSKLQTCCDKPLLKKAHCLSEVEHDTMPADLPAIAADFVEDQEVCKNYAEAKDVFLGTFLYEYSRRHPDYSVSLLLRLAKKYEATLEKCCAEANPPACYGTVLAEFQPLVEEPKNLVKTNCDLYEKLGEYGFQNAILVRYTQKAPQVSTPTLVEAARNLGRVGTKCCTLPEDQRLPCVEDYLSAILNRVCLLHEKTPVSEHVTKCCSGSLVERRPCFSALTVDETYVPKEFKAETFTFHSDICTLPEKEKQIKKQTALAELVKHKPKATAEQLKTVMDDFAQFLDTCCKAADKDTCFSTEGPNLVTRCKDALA

sheep albumin [15] = biological target: T8, sheep albumin; experiment: ELISA on coated albumin
T8 sequence (P14639 25-607 limits assumed): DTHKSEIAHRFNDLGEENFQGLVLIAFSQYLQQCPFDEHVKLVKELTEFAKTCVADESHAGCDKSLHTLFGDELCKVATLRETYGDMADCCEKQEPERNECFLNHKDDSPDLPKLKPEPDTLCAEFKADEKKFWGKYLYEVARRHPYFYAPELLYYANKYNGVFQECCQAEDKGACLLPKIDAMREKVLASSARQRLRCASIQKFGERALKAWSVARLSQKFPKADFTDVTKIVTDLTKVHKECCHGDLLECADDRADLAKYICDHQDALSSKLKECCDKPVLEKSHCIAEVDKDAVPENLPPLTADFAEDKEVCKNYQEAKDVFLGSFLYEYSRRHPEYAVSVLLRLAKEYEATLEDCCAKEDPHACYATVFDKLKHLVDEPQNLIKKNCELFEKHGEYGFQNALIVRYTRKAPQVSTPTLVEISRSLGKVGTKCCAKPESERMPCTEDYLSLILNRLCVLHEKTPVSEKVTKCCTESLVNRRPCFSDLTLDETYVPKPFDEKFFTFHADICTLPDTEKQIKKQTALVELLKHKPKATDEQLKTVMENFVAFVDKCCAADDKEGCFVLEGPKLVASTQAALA

cat albumin [16] = biological target: T10, cat albumin (cat, UniProt P49064 25-608); experiment: ELISA; A450 below 0.2 at highest SDA concentration
T10 construct: also called Feline albumin

cat albumin [17] = biological target: T10, cat albumin; experiment: ELISA on cat albumin captured from serum
T10 sequence (P49064 25-608 limits assumed): as the sequence (P49064 25-608 limits assumed) above

horse albumin = biological target: T11, horse albumin (horse, UniProt P35747 25-607); experiment: ELISA on coated albumin
Sequence of horse albumin (P35747 25-607 limits assumed): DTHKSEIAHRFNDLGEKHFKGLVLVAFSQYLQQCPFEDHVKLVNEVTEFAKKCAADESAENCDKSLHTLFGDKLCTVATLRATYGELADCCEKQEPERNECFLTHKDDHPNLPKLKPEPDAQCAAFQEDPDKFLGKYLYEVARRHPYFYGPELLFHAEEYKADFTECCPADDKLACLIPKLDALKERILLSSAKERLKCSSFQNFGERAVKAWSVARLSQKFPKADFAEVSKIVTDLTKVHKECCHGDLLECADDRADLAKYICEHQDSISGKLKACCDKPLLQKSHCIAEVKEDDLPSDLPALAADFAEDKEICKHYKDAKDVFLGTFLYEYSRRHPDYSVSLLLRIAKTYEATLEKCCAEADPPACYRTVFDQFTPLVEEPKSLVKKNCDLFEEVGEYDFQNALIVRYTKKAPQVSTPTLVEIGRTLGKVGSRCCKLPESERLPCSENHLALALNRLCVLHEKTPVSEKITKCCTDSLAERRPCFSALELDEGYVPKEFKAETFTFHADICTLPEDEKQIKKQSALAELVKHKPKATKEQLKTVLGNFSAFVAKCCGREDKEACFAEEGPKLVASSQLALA
T11 construct: also called Equine albumin

| Binder | binding result (chicken ovalbumin [3]) | binding result (swine albumin [4]) | binding result (bovine albumin [5]) | binding result (human albumin [6]) | binding result (mouse albumin [7]) | binding result (sheep albumin [8]) | SDA Effective Concentration resulting in A450 nm = 0.2 (dog albumin [9]) [ng/mL] | maximal absorbance value at 450 nm (dog albumin [9]) [A450] | maximal absorbance value at 450 nm (chicken ovalbumin [10]) [A450] | maximal absorbance value at 450 nm (swine albumin [11]) [A450] | maximal absorbance value at 450 nm (bovine albumin [12]) [A450] | maximal absorbance value at 450 nm (human albumin [13]) [A450] | maximal absorbance value at 450 nm (mouse albumin [14]) [A450] | maximal absorbance value at 450 nm (sheep albumin [15]) [A450] | binding result (cat albumin [16]) | maximal absorbance value at 450 nm (cat albumin [17]) [A450] | further results |
| --- | --- | --- | --- | --- | --- | --- | --- | --- | --- | --- | --- | --- | --- | --- | --- | --- | --- |
| B1 |  |  |  |  |  |  |  |  |  |  |  |  |  |  |  |  | Kd (Cat albumin [1]): 1.95 nM; koff (Cat albumin [1]): 0.000287 s⁻¹; kon (Cat albumin [1]): 147000 M⁻¹ s⁻¹; Kd (Dog albumin [2]): 11.1 nM; koff (Dog albumin [2]): 0.00483 s⁻¹; kon (Dog albumin [2]): 435000 M⁻¹ s⁻¹ |
| B2 | no binding (tested: 1000 ng/ml) | no binding (tested: 1000 ng/ml) | no binding (tested: 1000 ng/ml) | no binding (tested: 1000 ng/ml) | no binding (tested: 1000 ng/ml) | no binding (tested: 1000 ng/ml) | 6.4 | 1.76 | 0.053 | 0.079 | 0.051 | 0.056 | 0.066 | 0.06 |  |  |  |
| B3 | no binding (tested: 1000 ng/ml) | no binding (tested: 1000 ng/ml) | no binding (tested: 1000 ng/ml) | no binding (tested: 1000 ng/ml) | no binding (tested: 1000 ng/ml) | no binding (tested: 1000 ng/ml) |  |  | 0.052 | 0.08 | 0.05 | 0.052 | 0.107 | 0.052 | no binding (tested: 1000 ng/ml) | 0.087 |  |
| B4 | no binding (tested: 1000 ng/ml) | no binding (tested: 1000 ng/ml) | no binding (tested: 1000 ng/ml) | no binding (tested: 1000 ng/ml) |  | no binding (tested: 1000 ng/ml) | 171 | 0.579 | 0.059 | 0.085 | 0.054 | 0.078 |  | 0.061 | no binding (tested: 1000 ng/ml) | 0.089 | SDA Effective Concentration resulting in A450 nm = 0.2 (horse albumin): 149 ng/mL; maximal absorbance value at 450 nm (horse albumin): 0.809 A450 |
